{"source": "the supplement of paper PMC3334620", "note": "Over roughly 33,000 sequences, “E-score (-0.5 to 0.5)” has its median near -0.036; the highest 2% begin near 0.37. The list shows a part of the results.", "data": [{"molecular_target": "T1, Yer064c (UniProt P40041)", "T1 sequence": "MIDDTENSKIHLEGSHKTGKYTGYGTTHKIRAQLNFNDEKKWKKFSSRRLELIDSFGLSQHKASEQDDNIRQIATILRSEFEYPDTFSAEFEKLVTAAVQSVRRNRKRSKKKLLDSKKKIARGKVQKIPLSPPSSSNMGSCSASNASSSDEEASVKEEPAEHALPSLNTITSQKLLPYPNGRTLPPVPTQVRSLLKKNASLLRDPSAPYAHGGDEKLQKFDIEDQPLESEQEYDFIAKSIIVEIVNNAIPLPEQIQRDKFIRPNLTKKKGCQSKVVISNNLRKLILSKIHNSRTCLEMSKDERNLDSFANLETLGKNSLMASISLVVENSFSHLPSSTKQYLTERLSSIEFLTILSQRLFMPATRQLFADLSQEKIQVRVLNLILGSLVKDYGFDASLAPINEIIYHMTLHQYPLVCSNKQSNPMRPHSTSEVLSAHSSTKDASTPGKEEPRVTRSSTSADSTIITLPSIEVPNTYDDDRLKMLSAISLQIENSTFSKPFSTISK", "experiment": "PBM E-score (8-mer binding enrichment) (E-score (-0.5 to 0.5)); higher = stronger / more preferred TF binding; most listed sequences are background and not binding sites", "settings": "protein concentration: 200 nM; construct: GST-full length", "outline": "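The E-score, a modified Wilcoxon-Mann-Whitney statistic, was computed by the Universal PBM Analysis Suite for every ungapped eight-base word pooled with its reverse complement. Scans behind it were normalised with masliner after bound GST-tagged yeast transcription factors were detected with fluorescent anti-GST. The proteins, at about 100-200 nM, had been applied to universal all-10-mer Agilent arrays made double-stranded by primer extension.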", "values": [{"sequence": "ATCTGCAC", "PBM E-score": -0.235}, {"sequence": "CATGTAGA", "PBM E-score": 0.0666}, {"sequence": "GACTTTCC", "PBM E-score": 0.224}, {"sequence": "AGACGATG", "PBM E-score": 0.166}, {"sequence": "CGCGGTGC", "PBM E-score": -0.257}, {"sequence": "AAACAGTG", "PBM E-score": 0.0224}, {"sequence": "AGGGGAGG", "PBM E-score": -0.163}, {"sequence": "ATCCACAT", "PBM E-score": 0.0414}, {"sequence": "CAACTTCG", "PBM E-score": -0.171}, {"sequence": "AGCGTCCA", "PBM E-score": -0.205}, {"sequence": "AATATTTG", "PBM E-score": 0.0635}, {"sequence": "CTTCCTGA", "PBM E-score": 0.0745}, {"sequence": "ATACGGGA", "PBM E-score": -0.0636}, {"sequence": "CGATTGAC", "PBM E-score": 0.168}, {"sequence": "CCTATATA", "PBM E-score": 0.0598}, {"sequence": "ACCCGACA", "PBM E-score": -0.0915}, {"sequence": "CAAGCTAA", "PBM E-score": -0.018}, {"sequence": "ACGCCAGA", "PBM E-score": -0.078}, {"sequence": "AGACTCCG", "PBM E-score": 0.367}, {"sequence": "CATATCAG", "PBM E-score": -0.0243}, {"sequence": "GATTGCGA", "PBM E-score": 0.189}, {"sequence": "AGATTCTG", "PBM E-score": -0.00149}, {"sequence": "CGGTTGAC", "PBM E-score": 0.0774}, {"sequence": "CGTAAAGA", "PBM E-score": -0.00922}, {"sequence": "CTGCTAGA", "PBM E-score": 0.00564}, {"sequence": "CAGACCCA", "PBM E-score": -0.0972}, {"sequence": "GCGTCCTA", "PBM E-score": -0.0515}, {"sequence": "CCCGGCCG", "PBM E-score": -0.11}, {"sequence": "CAAAGCCA", "PBM E-score": 0.0169}, {"sequence": "GGGTACCC", "PBM E-score": -0.0185}, {"sequence": "CATACATC", "PBM E-score": -0.108}, {"sequence": "CCCAGCAC", "PBM E-score": -0.226}, {"sequence": "AATACTGG", "PBM E-score": -0.118}, {"sequence": "AATTACAA", "PBM E-score": -0.0291}, {"sequence": "AGATTTAT", "PBM E-score": 0.151}, {"sequence": "AACATAAA", "PBM E-score": 0.065}, {"sequence": "GGGGACGA", "PBM E-score": -0.0531}, {"sequence": "ACAACACG", "PBM E-score": -0.182}, {"sequence": "TTAGGCAA", "PBM E-score": -0.0683}, {"sequence": "CCATACGG", "PBM E-score": -0.104}, {"sequence": "ACTAGAGG", "PBM E-score": 0.113}, {"sequence": "ATCACTCA", "PBM E-score": 0.298}, {"sequence": "GATCTAAA", "PBM E-score": 0.101}, {"sequence": "GGGAGCGA", "PBM E-score": -0.068}, {"sequence": "GACTCGCC", "PBM E-score": 0.371}, {"sequence": "GATACTCA", "PBM E-score": 0.311}, {"sequence": "CCGAGTGA", "PBM E-score": 0.151}, {"sequence": "ACAATCTA", "PBM E-score": 0.12}, {"sequence": "GGGATGCA", "PBM E-score": -0.127}, {"sequence": "GCTTAGCC", "PBM E-score": -0.0758}, {"sequence": "CATCTGGG", "PBM E-score": -0.0921}, {"sequence": "ACGGCTTA", "PBM E-score": -0.0372}, {"sequence": "CGCACACC", "PBM E-score": -0.0196}, {"sequence": "TGACTGAA", "PBM E-score": 0.432}, {"sequence": "AACTAGAG", "PBM E-score": 0.0933}, {"sequence": "ATCTACCG", "PBM E-score": -0.0521}, {"sequence": "AGACACGA", "PBM E-score": 0.0462}, {"sequence": "TAACTATA", "PBM E-score": 0.0807}, {"sequence": "GCGGCAGC", "PBM E-score": -0.295}, {"sequence": "GCCCAGGA", "PBM E-score": -0.148}, {"sequence": "AATCGAAT", "PBM E-score": 0.0432}, {"sequence": "GACTAGCA", "PBM E-score": 0.374}, {"sequence": "ACGTAGGA", "PBM E-score": 0.0744}, {"sequence": "CTTTAGAA", "PBM E-score": 0.0224}, {"sequence": "ACGCTGTA", "PBM E-score": -0.00895}, {"sequence": "CTATAATC", "PBM E-score": 0.227}, {"sequence": "CTGCCGCA", "PBM E-score": -0.103}, {"sequence": "GTCGTCGA", "PBM E-score": 0.106}, {"sequence": "CACCCGAA", "PBM E-score": 0.0215}, {"sequence": "AATGCCGA", "PBM E-score": -0.0788}, {"sequence": "AGCGCCGC", "PBM E-score": -0.315}, {"sequence": "ACGAAATG", "PBM E-score": -0.05}, {"sequence": "AGCAGAGA", "PBM E-score": 0.0273}, {"sequence": "GGCGAAAA", "PBM E-score": -0.099}, {"sequence": "GAAGTCCA", "PBM E-score": -0.0504}, {"sequence": "CCATCGCG", "PBM E-score": 0.0738}, {"sequence": "GCATTTAA", "PBM E-score": -0.0791}, {"sequence": "CCGAGCAC", "PBM E-score": -0.113}, {"sequence": "AGAAGGCA", "PBM E-score": -0.3}, {"sequence": "AGTACGCC", "PBM E-score": 0.0783}, {"sequence": "ACGGTCTC", "PBM E-score": -0.123}, {"sequence": "CACATCAG", "PBM E-score": -0.0487}, {"sequence": "GGGTAGTA", "PBM E-score": -0.116}, {"sequence": "ATTAGTCG", "PBM E-score": 0.41}, {"sequence": "ACTCCCTA", "PBM E-score": 0.163}, {"sequence": "CGGCTTAG", "PBM E-score": -0.0555}, {"sequence": "CCTAACAC", "PBM E-score": 0.0929}, {"sequence": "GGCAAGCC", "PBM E-score": -0.208}, {"sequence": "AAACTTCT", "PBM E-score": 0.0722}, {"sequence": "AATTTGTG", "PBM E-score": 0.00772}, {"sequence": "AAGGACAA", "PBM E-score": 0.146}, {"sequence": "AACGCACT", "PBM E-score": -0.0933}, {"sequence": "CTGGGACA", "PBM E-score": -0.195}, {"sequence": "CCGGCTAA", "PBM E-score": 0.0105}, {"sequence": "GCGTATTA", "PBM E-score": -0.118}, {"sequence": "GTAGCGCA", "PBM E-score": -0.238}, {"sequence": "TAGCGCAA", "PBM E-score": -0.0782}, {"sequence": "CCCTTGAA", "PBM E-score": -0.0587}, {"sequence": "ATCCACCG", "PBM E-score": 0.0718}, {"sequence": "TAAGGAGA", "PBM E-score": 0.123}, {"sequence": "ACCGCTAT", "PBM E-score": -0.159}, {"sequence": "CCACCTGG", "PBM E-score": -0.145}, {"sequence": "ATTTGTGC", "PBM E-score": 0.0583}, {"sequence": "CGTGGTAA", "PBM E-score": -0.141}, {"sequence": "ATGTTTCG", "PBM E-score": 0.0613}, {"sequence": "GCAATGCA", "PBM E-score": -0.156}, {"sequence": "AGAGCCTG", "PBM E-score": -0.19}, {"sequence": "ACTGGTTG", "PBM E-score": 0.013}, {"sequence": "CAGATACC", "PBM E-score": -0.147}, {"sequence": "AGCCGATC", "PBM E-score": -0.0598}]}]}
